Reference: PubChem BioAssay AID1159614 (National Center for Advancing Translational Sciences (NCATS), 2016)
Among all 45,000 compounds or so, about 65 (0.1%) were called active. The call rests on the fitted dose curve; in most records, active means well fitted activation curve with a large enough effect; inconclusive means small, poorly fitted or top-dose-only effect; inactive means no such curve, though single readings can be large or run the other way. The list shows a part of the results.

molecular target: Galactocerebrosidase (Homo sapiens) (UniProt P54803); experiment: A Novel Cell-Based Assay to Identify Small Molecules for B -Galactocerebrosidase; settings: 145M-Twi-hGALC-G270D cells (Twitcher mouse brain line with human GALC G270D), HMU-beta-Gal fluorescence, 48 h; series mostly up to 57.5 µM; activation: at the top concentration; further: nearly all actives have a fitted effect of over 65% in size; on activation: 0% is about no effect
Chain of UniProt P54803 (P54803 whole entry, looked up): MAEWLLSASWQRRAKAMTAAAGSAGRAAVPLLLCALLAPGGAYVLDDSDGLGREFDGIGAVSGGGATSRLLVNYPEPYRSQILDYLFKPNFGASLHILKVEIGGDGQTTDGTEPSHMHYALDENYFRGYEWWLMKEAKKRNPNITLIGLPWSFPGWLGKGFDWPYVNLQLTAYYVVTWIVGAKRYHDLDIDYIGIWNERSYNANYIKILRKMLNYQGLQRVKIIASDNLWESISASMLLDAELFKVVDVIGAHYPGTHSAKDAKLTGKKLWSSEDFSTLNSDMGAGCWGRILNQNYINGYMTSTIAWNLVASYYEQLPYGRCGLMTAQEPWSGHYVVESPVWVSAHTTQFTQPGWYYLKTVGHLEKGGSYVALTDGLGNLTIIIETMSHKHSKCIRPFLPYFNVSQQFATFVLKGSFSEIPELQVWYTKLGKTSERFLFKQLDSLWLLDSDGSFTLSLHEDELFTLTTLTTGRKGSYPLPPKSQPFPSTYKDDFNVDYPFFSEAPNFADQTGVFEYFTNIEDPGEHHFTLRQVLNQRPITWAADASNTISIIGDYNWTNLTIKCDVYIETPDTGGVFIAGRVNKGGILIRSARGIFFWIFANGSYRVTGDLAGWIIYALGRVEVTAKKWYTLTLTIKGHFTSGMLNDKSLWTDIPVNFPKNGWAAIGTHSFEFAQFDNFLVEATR
Method in brief: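 Brain-derived Twitcher mouse 145M-Twi cells stably expressing human GALC-G270D or wild-type GALC, treated live, then residual GALC activity read by fluorescence of HMU-b-Gal substrate (0.1 mM final) in citrate-phosphate buffer pH 5.2 with sodium taurocholate. Signal increase indicates enhancement.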
Potency means the concentration at half of the fitted maximal effect.

| SMILES | activation | Potency |
| --- | --- | --- |
| Cc1cc(C)cc(NC(=O)C(=O)NCC(c2cccnc2)N2CCN(c3ccccc3)CC2)c1 (stereo not drawn) | inactive: -11.5% | – |
| COc1ccc(-n2ccn(Cc3ccccc3C)c(=O)c2=O)cc1 | inactive: -15% | – |
| Cc1ccc(OCC(=O)Nc2ccc3[nH]c(=O)sc3c2)cc1 | inactive: -6.4% | – |
| CCc1cc2c(cc3c(=O)n(CC(=O)NC4CCCCC4)ncn32)s1 | inactive: -3.87% | – |
| Cc1nn(-c2ccccc2)c2c1N(CCCC(=O)NCc1ccccc1)C(=O)CS2 | inactive: -8.33% | – |
| O=C1CN(C(=O)Nc2ccccc2Cl)C(c2ccccc2)c2c(sc3c2CCCC3)N1 (stereo not drawn) | inactive: -9.19% | – |
| COc1ccc(NC(=O)C(C)Sc2cc(-c3ccccc3)nc(C)n2)cc1Cl (stereo not drawn) | inactive: -9.38% | – |
| COc1ccc(-c2cc(C(=O)NCCc3ccc(OC)c(OC)c3)c3ccccc3n2)cc1 | inactive: -20.9% | – |
| CCCc1cc(=O)oc2cc(C)c3c(C(C)(C)C)coc3c12 | inactive: -22.7% | – |
| COc1cccc(NC(=O)c2ccc3[nH]c(C)cc(=O)c3c2)c1 | inactive: -15.3% | – |
| O=C(CCn1c(=O)c2cccn2c2cccnc21)NCc1ccccc1F | inactive: 4.14% | – |
| O=C(COc1ccc(F)cc1)Nc1ccccc1OCc1cc(=O)n2ccccc2n1 | inactive: -5.59% | – |
| CCc1nn2c(=O)cc(COC(=O)c3ccc(NC(=O)C4CCCCC4)cc3)nc2s1 | inactive: -18.8% | – |
| CCC1CCc2nc3sc(C(=O)Nc4cccc(C(F)(F)F)c4)c(N)c3cc2C1 (stereo not drawn) | – | active: 10 µM |
| COc1ccc(-c2noc(-c3ccc(NC4CCCCC4)c([N+](=O)[O-])c3)n2)cc1 | inactive: -11.6% | – |
| NC(=O)c1ccccc1O | inactive: -18% | – |
| COC(=O)c1ccc(Cn2nc(-c3ccc(C)cc3)ccc2=O)cc1 | inactive: -2.48% | – |
| COc1ccc(N(CC(=O)Nc2cc(Cl)ccc2C)S(=O)(=O)c2c(C)noc2C)cc1 | inactive: -5.88% | – |
| CCOc1ccc(NS(=O)(=O)c2ccc3[nH]cc(C(=O)N4CCCCCC4)c(=O)c3c2)cc1 | inactive: -14.6% | – |
| COc1cccc(CNS(=O)(=O)c2ccc(-c3cc(C(F)(F)F)on3)s2)c1 | inactive: -8.99% | – |
| O=C(c1ccc2c(c1)OCCO2)N(Cc1cccnc1)c1nc2c(F)cc(F)cc2s1 | inactive: -37% | – |

| SMILES | activation | Potency |
| --- | --- | --- |
| CCOC(=O)c1ccc(N2C(=O)Cc3cc(OCC)c(OCC)cc3C2c2ccccc2)cc1 (stereo not drawn) | inactive: -18.6% | – |
| CCOc1ccc(C(=O)Nc2ccc3oc(-c4ccc(Br)cc4)nc3c2)cc1 | inactive: -11.4% | – |
| COc1cccc(CN2C(=O)C3(SCC(=O)N3c3ccc(C(C)C)cc3)c3ccccc32)c1 (stereo not drawn) | inactive: -41.3% | – |
| CCc1cccc(NC(=O)c2oc3ccc4c(c3c2C)C(=O)CC(C)(C)O4)c1 | inactive: -10.7% | – |
| NC(=O)CSc1nnnn1-c1cccc(O)c1 | inactive: 5.85% | – |
| Cn1c(SCc2ccccc2Cl)nc2c([nH]c3ccccc32)c1=O | inactive: -7.02% | – |
| COCCNC(=O)c1ccc2c(=O)n(CCOC)c(SCC(=O)c3c[nH]c4ccccc34)nc2c1 | inactive: -3.66% | – |
| COc1ccc(N2CCN(C(=O)c3sc4nc5n(c(=O)c4c3C)CCC5)CC2)cc1 | inactive: -25.1% | – |
| Cc1cccc(CCNC(=O)CCc2c(C)nc3ncnn3c2C)c1 | inactive: -11.5% | – |
| Cc1ccccc1-c1nc(SCC(=O)NCC2CCCO2)c2c(=O)n(C)c(=O)n(C)c2n1 (stereo not drawn) | inactive: 10.5% | – |
| COc1ccc(Cc2nc3ccc(C(=O)NCCCN4CCN(C)CC4)cc3o2)cc1 | inactive: -12% | – |
| NC(=O)N[C@@H](CCC(=O)O)C(=O)O | inactive: -8.94% | – |
| Cc1ccc(OCCSc2nc3ccccc3n2CC(=O)N2CCCCC2)c(C)c1 | inactive: 3.62% | – |
| O=C(Cn1c(=O)n(Cc2ccc(F)cc2)c(=O)c2sc3ccccc3c21)NCc1ccccc1 | inactive: -8.25% | – |
| O=C(Nc1cccc(-c2nc3cc(Cl)ccc3o2)c1)c1ccc(F)cc1 | inactive: 8.23% | – |
| O=C(CCn1cnc2onc(-c3ccc(F)cc3)c2c1=O)N1CCN(c2ccccc2)CC1 | inactive: -12.7% | – |
| COc1cccc(OCc2nc3ccccc3n2C)c1 | inactive: -11.6% | – |
| O=C(NCc1noc2ccccc12)N1CCN(c2ccccc2F)CC1 | inactive: -9.31% | – |
| O=C(CSC1=Nc2ccccc2C2=NC(Cc3ccccc3)C(=O)N12)Nc1ccccc1 (stereo not drawn) | inactive: -9.63% | – |
| COc1ccc(-c2nc3sc(CCNC(=O)C(=O)Nc4ccc(C)cc4C)c(C)n3n2)cc1 | inactive: -9.39% | – |
| Cc1ccc(NC(=O)C2CCC(CNS(=O)(=O)c3cccc4nsnc34)CC2)c(C)c1 (stereo not drawn) | inactive: -20.9% | – |

| SMILES | activation | Potency |
| --- | --- | --- |
| O=C(Cn1c(=O)oc2cc(S(=O)(=O)N3CCCC3)ccc21)Nc1ccc(OC(F)(F)F)cc1 | inactive: -21.4% | – |
| Cc1nc2ccc(S(=O)(=O)N(CC(=O)Nc3cccc(C)c3C)Cc3ccccc3)cc2s1 | inactive: -3.6% | – |
| Cc1ccc(C)c(Cn2c(C(C)NC(=O)c3ccccc3)nc3ccccc32)c1 (stereo not drawn) | inactive: 2.16% | – |
| COc1ccc(-c2ccc(NS(=O)(=O)c3ccccc3Cl)cc2)nn1 | inactive: -6.24% | – |
| Cc1nc(N2CCOCC2)c2c(C(=O)N3CCN(c4ccc(Cl)cc4)CC3)c(C)oc2n1 | inactive: -6.55% | – |
| COc1ccc(Cn2c(CCC(=O)Nc3cccc(Cl)c3)nc3cccnc32)cc1 | inactive: -20% | – |
| CCOc1cccc2cc(-c3nc(-c4ccc(Cl)cc4)c(C)s3)c(=O)oc12 | inactive: -3.24% | – |
| CCc1ccc(-c2cn3c(n2)sc2cc(C(=O)NCCCc4ccccc4)ccc23)cc1 | inactive: -5.29% | – |
| CCOc1ccc(C(c2c(C)[nH]n(-c3ccccc3)c2=O)c2c(C)[nH]n(-c3ccccc3)c2=O)cc1OC | inactive: -37.6% | – |
| CCN(CC)CCNC(=O)c1ccc2c(=O)n3nc(Nc4cccc(Cl)c4C)sc3nc2c1 | inactive: -16.3% | – |
| COc1ccc(-c2nsc(NC(=O)c3cccc(OC)c3)n2)cc1 | inactive: -5.91% | – |
| COC(=O)c1ccc(CN(Cc2ccc(OC)c(OC)c2)S(=O)(=O)c2ccc(F)c(C(=O)Nc3cc(C)ccc3C)c2)cc1 | inactive: -16.8% | – |
| CCOc1ccccc1NC(=O)CN1Cc2ccccc2C1=O | inactive: -20.6% | – |
| N#Cc1nc(/C=C/c2ccc(F)cc2)oc1N1CCCCC1 | inactive: -14.8% | – |
| Cc1cccc(C(=O)NCC(=O)OCc2cc(=O)n3nc(C)sc3n2)c1 | inactive: -21% | – |
| CC(Oc1ccccc1)C(=O)Nc1ccc(C(=O)OCc2cc(=O)n3ccsc3n2)cc1 (stereo not drawn) | inactive: -10.5% | – |
| CCOc1ccccc1CNC(=O)c1ccc2nc(CCc3ccccc3)oc2c1 | inactive: -9.46% | – |
| CCc1nn2c(=O)cc(COC(=O)c3cccs3)nc2s1 | inactive: -24.5% | – |
| Cc1nc(SCC(=O)Nc2ccc(Cl)cc2C(F)(F)F)[nH]c(=O)c1Cc1ccccc1 | inactive: 0.493% | – |
| Cc1ccc(Cn2cc3c(n2)-c2c(oc(C(=O)Nc4ccc(F)cc4F)c2C)CC3)cc1 | inactive: -2.25% | – |
| CCOC(=O)c1ccc(NC(=O)Cn2cc(S(=O)(=O)Cc3ccccc3F)c3ccccc32)cc1 | inactive: 6.36% | – |
